Patent US7196085B2, “Phthalazinone derivatives” (KuDOS Pharmaceuticals Limited, priority 2002, dated 2007)

target: Mammalian PARP, isolated from Hela cell nuclear extract (Homo sapiens, UniProt P09874); assay: PARP inhibition assay (FlashPlate, 3H-NAD incorporation); type: biochemical; conditions: not given
Experimental: In order to assess the inhibitory action of the compounds, the following assay was used to determine IC50 values.
The total assay volume per well was 40 μl.
After 10 minutes incubation at 30° C. the reactions were initiated by the addition of a 10 μl reaction mixture, containing NAD (5 μM), ^3H-NAD and 30 mer double stranded DNA-oligos. Designated positive and negative reaction wells were done in combination with compound wells (unknowns) in order to calculate % enzyme activities. The plates were then shaken for 2 minutes and incubated at 30° C. for 45 minutes.
Following the incubation, the reactions were quenched by the addition of 50 μl 30% acetic acid to each well. The plates were then shaken for 1 hour at room temperature.
The plates were transferred to a TopCount NXT (TRADE MARK) (Packard, UK) for scintillation counting. Values recorded are counts per minute (cpm) following a 30 second counting of each well.
The % enzyme activity for each compound is then calculated using the following equation: […]
Such IC50 values are used as comparative values to identify increased compound potencies.

UniProt P09874, sequence (P09874 whole entry): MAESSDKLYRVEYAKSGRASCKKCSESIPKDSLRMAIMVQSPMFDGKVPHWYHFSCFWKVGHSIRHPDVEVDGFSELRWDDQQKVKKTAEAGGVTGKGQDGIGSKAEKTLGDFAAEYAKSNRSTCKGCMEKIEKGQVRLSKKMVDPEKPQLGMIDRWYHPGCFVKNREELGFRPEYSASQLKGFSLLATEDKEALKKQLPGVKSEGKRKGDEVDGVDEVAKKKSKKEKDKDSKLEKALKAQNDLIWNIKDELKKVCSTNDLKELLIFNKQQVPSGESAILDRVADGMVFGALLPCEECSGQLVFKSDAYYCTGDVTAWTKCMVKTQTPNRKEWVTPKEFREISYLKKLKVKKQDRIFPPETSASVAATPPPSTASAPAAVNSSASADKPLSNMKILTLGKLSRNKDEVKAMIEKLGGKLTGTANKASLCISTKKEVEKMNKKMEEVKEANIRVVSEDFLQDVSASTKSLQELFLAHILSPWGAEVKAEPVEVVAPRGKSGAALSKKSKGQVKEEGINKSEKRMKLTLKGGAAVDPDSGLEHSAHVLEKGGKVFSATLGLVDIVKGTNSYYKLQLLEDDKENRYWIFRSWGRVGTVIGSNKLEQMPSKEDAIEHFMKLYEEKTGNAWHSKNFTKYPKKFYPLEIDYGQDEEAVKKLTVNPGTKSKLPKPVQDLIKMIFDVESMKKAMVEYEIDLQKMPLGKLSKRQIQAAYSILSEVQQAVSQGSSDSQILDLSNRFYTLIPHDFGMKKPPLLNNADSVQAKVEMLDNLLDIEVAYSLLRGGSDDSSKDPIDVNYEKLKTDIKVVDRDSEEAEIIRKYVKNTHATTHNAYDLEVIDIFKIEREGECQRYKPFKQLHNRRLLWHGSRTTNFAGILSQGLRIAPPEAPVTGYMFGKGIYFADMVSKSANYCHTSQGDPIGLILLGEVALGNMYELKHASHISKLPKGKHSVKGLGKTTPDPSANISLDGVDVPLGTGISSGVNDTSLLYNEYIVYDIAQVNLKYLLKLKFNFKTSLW

Structure (SMILES) | pIC50
O=C1CCC(=O)N1c1cc(Cc2n[nH]c(=O)c3ccccc23)ccc1F [Example 23, 1-[2-fluoro-5-(4-oxo-3,4-dihydrophalazin-1-ylmethyl)phenyl]pyrrolidine-2,5-dione] | > 7.52

same assay, conditions: NAD 5 μM, 30° C., 45 minutes; compound 10 to 0.01 μM; read-out: IC50 (concentration at which 50% of the enzyme activity is inhibited)

pIC50 | Structure (SMILES)
> 7.52 | O=C1C2CCC2C(=O)N1c1cccc(Cc2n[nH]c(=O)c3ccccc23)c1 (centres unmarked) [Example 13, 3-[3-(4-oxo-3,4-dihydrophthalazin-1-ylmethyl)phenyl]-3-azabicyclo[3.2.0]heptane-2,4-dione]
> 7.52 | CC1=CC(=O)N(c2cccc(Cc3n[nH]c(=O)c4ccccc34)c2)C1=O [Example 3, 3-methyl-1-[3-(4oxo-3,4-dihydrophthalazin-1-ylmethyl)phenyl]pyrrole-2,5-dione]
5.14 | O=c1[nH]ncc2ccccc12 [Example 100, 1(2H)-phthalazinone, reference compound]
> 7.52 | O=C1CCCC(=O)N1c1cc(Cc2n[nH]c(=O)c3ccccc23)ccc1Cl [Example 42, 1-[2-chloro-5-(4-oxo-3,4-dihydrophalazin-1-ylmethyl)phenyl]piperidine-2,5-dione]
> 7.52 | CC1CC(=O)N(c2cccc(Cc3n[nH]c(=O)c4ccccc34)c2)C1=O (centres unmarked) [Example 20, 3-methyl-1-[3-(4-oxo-3,4-dihydrophthalazin-1-ylmethyl)phenyl]pyrrolidine-2,5-dione]
> 7.52 | O=C(N[C@H]1CC(=O)N(c2cc(Cc3n[nH]c(=O)c4ccccc34)ccc2F)C1=O)OCc1ccccc1 [Example 35, (S)-3-benzyloxycarbonylamino-1-[2-fluoro-5-(4-oxo-3,4-dihydrophthalazin-1-ylmethyl)phenyl]pyrrolidine-2,5-dione]
> 7.52 | CC1=C(C)C(=O)N(c2cccc(Cc3n[nH]c(=O)c4ccccc34)c2)C1=O [Example 11, 3,4-dimethyl-1-[3-(4-oxo-3,4-dihydrophthalazin-1-ylmethyl)phenyl]pyrrole-2,5-dione]
> 7.52 | COc1ccc(Cc2n[nH]c(=O)c3ccccc23)cc1N1C(=O)CCC1=O [Example 43, 1-[2-methoxy-5-(4-oxo-3,4-dihydrophalazin-1-ylmethyl)phenyl]pyrrolidine-2,5-dione]
> 7.52 | O=C1CN(Cc2ccccc2)CC(=O)N1c1cc(Cc2n[nH]c(=O)c3ccccc23)ccc1F [Example 31, 4-benzyl-1-[2-fluoro-5-(4-oxo-3,4-dihydrophthalazin-1-ylmethyl)phenyl]piperazine-2,6-dione]
> 7.52 | CCCCCC/C=C/CC1CC(=O)N(c2cc(Cc3n[nH]c(=O)c4ccccc34)ccc2F)C1=O (centres unmarked) [Example 30, 1-[2-Fluoro-5-(4-oxo-3,4-dihydrophthalazin-1-ylmethyl)phenyl]-3-non-2-enylpyrrolidine-2,5-dione]
> 7.52 | O=C1CC2(CCCC2)C(=O)N1c1cc(Cc2n[nH]c(=O)c3ccccc23)ccc1F [Example 32, 2-[2-fluoro-5-(4-oxo-3,4-dihydrophthalazin-1-ylmethyl)phenyl]-2-azaspiro[4.4]nonane-1,3-dione]
> 7.52 | CCC/C=C/CC1CC(=O)N(c2cccc(Cc3n[nH]c(=O)c4ccccc34)c2)C1=O (centres unmarked) [Example 19, 3-hex-2-enyl-1-[3-(4-oxo-3,4-dihydrophthalazin-1-ylmethyl)phenyl]pyrrolidine-2,5-dione]
> 7.52 | O=C1C=C(c2ccccc2)C(=O)N1c1cccc(Cc2n[nH]c(=O)c3ccccc23)c1 [Example 7, 1-[3-(4-oxo-3,4-dihydrophthalazin-1ylmethyl)phenyl]-3-phenylpyrrole-2,5-dione]
> 7.52 | O=C1C2CC2C(=O)N1c1cc(Cc2n[nH]c(=O)c3ccccc23)ccc1Cl (centres unmarked) [Example 41, 3-[2-chloro-5-(4-oxo-3,4-dihydrophthalazin-1-ylmethyl)phenyl]-3-azabicyclo[3.1.0]hexane-2,4-dione]
> 7.52 | O=C1CC(Cc2ccccc2)C(=O)N1c1cc(Cc2n[nH]c(=O)c3ccccc23)ccc1F (centres unmarked) [Example 33, 3-benzyl-1-[2-fluoro-5-(4-oxo-3,4-dihydrophthalazin-1-ylmethyl)phenyl]pyrrolidine-2,5-dione]
> 7.52 | O=C1C2CC2C(=O)N1c1cccc(Cc2n[nH]c(=O)c3ccccc23)c1 (centres unmarked) [Example 18, 3-[3-(4-oxo-3,4-dihydrophthalazin-1-ylmethyl)phenyl]-3-azabicyclo[3.1.0]hexane-2,4-dione]
> 7.52 | O=C1C2CCCCC2C(=O)N1c1cccc(Cc2n[nH]c(=O)c3ccccc23)c1 (centres unmarked) [Example 5, 2-[3-(4-oxo-3,4-dihydrophthalazin-1-ylmethyl)phenyl]-3a,4,5,6,7,7a-hexahydroisoindole-1,3-dione]
> 7.52 | O=C1CC(c2ccccc2)C(=O)N1c1cc(Cc2n[nH]c(=O)c3ccccc23)ccc1Cl (centres unmarked) [Example 39, 1-[2-chloro-5-(4-oxo-3,4-dihydrophalazin-1-ylmethyl)phenyl]-3-phenylpyrrolidine-2,5-dione]
> 7.52 | CCC/C=C/CC1CC(=O)N(c2cc(Cc3n[nH]c(=O)c4ccccc34)ccc2F)C1=O (centres unmarked) [Example 29, 1-[2-fluoro-5-(4-oxo-3,4-dihydrophthalazin-1-ylmethyl)phenyl]-3-hex-2-enylpyrrolidine-2,5-dione]
> 7.52 | O=C1CC(c2ccccc2)C(=O)N1c1cccc(Cc2n[nH]c(=O)c3ccccc23)c1 (centres unmarked) [Example 15, 1-[3-(4-oxo-3,4-dihydrophthalazin-1-ylmethyl)phenyl]-3-phenylpyrrolidine-2,5-dione]
> 7.52 | O=C1CNCC(=O)N1c1cc(Cc2n[nH]c(=O)c3ccccc23)ccc1F [Example 37, 1-[2-fluoro-5-(4-oxo-3,4-dihydrophthalazin-1-ylmethyl)phenyl]piperazine-2,6-dione]
> 7.52 | CCCCC/C=C/CC1CC(=O)N(c2cc(Cc3n[nH]c(=O)c4ccccc34)ccc2F)C1=O (centres unmarked) [Example 28, 1-[2-fluoro-5-(4-oxo-3,4-dihydrophthalazin-1-ylmethyl)phenyl]-3-oct-2-enylpyrrolidine-2,5-dione]

pIC50: −log10 of the molar value.
